Test results from the supplement of paper PMC8285479.
Structures can show the parent of a compound that is named as a salt. ± gives the standard deviation of the averaged measurements. The full ranking holds about 1,900 compounds; the median of “normalised cell viability (NPI; 0 = phenylarsine oxide control, 1 = DMSO control)” is about 1, and the lowest 2% start at about 0.039. This is one part of the list.

System: NCI-H1944
Assay: normalised cell viability (NPI; 0 = phenylarsine oxide control, 1 = DMSO control) (fraction of DMSO control); NCI-H1944 is a non-small cell lung cancer line; higher = more viable cells (less compound toxicity)
Settings: 6 days
[1] = glucocorticoid arm: hydrocortisone 2.75 uM co-treatment, compound 1 µM
[2] = glucocorticoid arm: hydrocortisone 2.75 uM co-treatment, compound 5 µM
[3] = glucocorticoid arm: hydrocortisone 2.75 uM pre-treated 2 days and continued, compound 1 µM
[4] = glucocorticoid arm: hydrocortisone 2.75 uM pre-treated 2 days and continued, compound 5 µM
[5] = glucocorticoid arm: vehicle, compound 1 µM
[6] = glucocorticoid arm: vehicle, compound 5 µM
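Note: CTB read-out in 384-well plates, mean of triplicate wells, normalised per plate against 1 µM phenylarsine oxide and 0.1% DMSO, compounds added 24 h after seeding.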

| SMILES | normalised cell viability [1] | normalised cell viability [2] | normalised cell viability [3] | normalised cell viability [4] | normalised cell viability [5] | normalised cell viability [6] |
| --- | --- | --- | --- | --- | --- | --- |
| O=C(CCCN1CC=C(n2c(=O)[nH]c3ccccc32)CC1)c1ccc(F)cc1 [Droperidol] | 0.986 ± 0.023 | 0.978 ± 0.015 | 0.989 ± 0.002 | 0.958 ± 0.013 | 0.9693 ± 0.0015 | 0.9743 ± 0.0059 |
| Cc1cccc(/C=C/c2ccccc2)n1 | 0.9943 ± 0.0055 | 1.02 ± 0.011 | 1.01 ± 0.027 | 1.02 ± 0.016 | 0.995 ± 0.005 | 0.9843 ± 0.009 |
| CCn1cc(C(=O)O)c(=O)c2ccc(C)nc21 [Nalidixic acid sodium salt] | 0.9927 ± 0.0095 | 1.01 ± 0.02 | 1.005 ± 0.0087 | 0.897 ± 0.14 | 1.001 ± 0.0081 | 1.005 ± 0.0092 |
| O=c1[nH]c2ccccc2c2ccccc12 [6(5H)-Phenanthridinone] | 0.982 ± 0.0078 | 1.02 | 0.794 ± 0.34 | 1.01 ± 0.01 | 0.9943 ± 0.0045 | 0.9777 ± 0.0097 |
| C#CCN(C)Cc1ccccc1 [Pargyline hydrochloride] | 0.9987 ± 0.0023 | 0.972 ± 0.015 | 1.02 ± 0.021 | 1 ± 0.018 | 0.996 ± 0.013 | 0.99 ± 0.012 |
| CC(Cc1ccccc1)Nc1ncnc2c1ncn2C1OC(CO)C(O)C1O (stereo not drawn) [R(-)-N6-(2-Phenylisopropyl)adenosine] | 0.998 ± 0.002 | 1.01 ± 0.018 | 0.9997 ± 0.0096 | 1.03 ± 0.031 | 1.013 ± 0.0058 | 1.02 ± 0.017 |
| N=C(N)SCCc1cccc(CCSC(=N)N)c1 [1,3-PBIT dihydrobromide] | 0.9893 ± 0.0087 | 0.91 ± 0.025 | 1.02 ± 0.021 | 0.986 ± 0.013 | 0.984 ± 0.0061 | 0.979 ± 0.016 |
| O=c1cc(-c2ccc(O)cc2)oc2cc(O)cc(O)c12 [Apigenin] | 0.9913 ± 0.0085 | 1.007 ± 0.0058 | 0.996 ± 0.0069 | 0.989 ± 0.016 | 0.999 ± 0.011 | 0.994 ± 0.0044 |
| CC(C)n1nc(-c2cc3cc(O)ccc3[nH]2)c2c(N)ncnc21 | 0.65 ± 0.059 | 0.327 ± 0.015 | 0.646 ± 0.013 | 0.577 ± 0.11 | 0.683 ± 0.054 | 0.0709 ± 0.013 |
| NC(=O)N1c2ccccc2C=Cc2ccccc21 [Carbamazepine] | 0.9957 ± 0.0038 | 1 ± 0.017 | 0.993 ± 0.0062 | 1.01 ± 0.017 | 0.983 ± 0.0089 | 0.9943 ± 0.0045 |
| N=C1Sc2ccccc2C2=NCCCN12 | 1.017 ± 0.0058 | 1.01 ± 0.031 | 1.02 ± 0.011 | 0.86 ± 0.28 | 1.002 ± 0.0068 | 1.02 ± 0.015 |
| O=C(CCCCCCNC(=O)c1cnc(N(c2ccccc2)c2ccccc2)nc1)NO | 0.9803 ± 0.0098 | 0.922 ± 0.018 | 0.996 ± 0.021 | 0.9343 ± 0.0021 | 1.01 ± 0.01 | 0.9873 ± 0.0071 |
| O=C(CCCCCCNC(=O)c1cnc(N(c2ccccc2)c2ccccc2)nc1)NO [Rocilinostat (ACY-1215)] | 0.9393 ± 0.0064 | 0.966 ± 0.011 | 0.944 ± 0.015 | 0.945 ± 0.018 | 0.9923 ± 0.0021 | 0.918 ± 0.0096 |
| CN(C)CCN(Cc1cccs1)c1ccccn1 [Methapyrilene hydrochloride] | 0.99 ± 0.013 | 1.01 ± 0.02 | 1.003 ± 0.0058 | 1.06 ± 0.076 | 0.9977 ± 0.0021 | 0.9973 ± 0.0031 |
| CC(C)CC(=O)Nc1n[nH]c2c1CN(C(=O)C1CCN(C)CC1)C2(C)C | 0.8357 ± 0.0074 | 0.369 ± 0.0055 | 0.968 ± 0.0056 | 0.962 ± 0.036 | 0.365 ± 0.023 | 0.0459 ± 0.004 |
| CCCCCCCCCCCCCCCc1cccc(OCC)c1C(=O)Nc1ccc(Cl)c(C(F)(F)F)c1 | 1.01 ± 0.014 | 1.01 ± 0.011 | 1.01 ± 0.02 | 1.02 ± 0.016 | 0.9997 ± 0.0097 | 1 ± 0.0054 |
| CCc1cccc(N(C)C(=N)Nc2cccc3ccccc23)c1 | 0.999 ± 0.027 | 0.918 ± 0.012 | 1.006 ± 0.0069 | 0.967 ± 0.013 | 1.003 ± 0.0064 | 1.01 ± 0.01 |
| CC(C)NCC(O)COc1ccc(COCCOC(C)C)cc1 (configuration not stated) [Bisoprolol hemifumarate salt] | 1.01 ± 0.01 | 1.01 ± 0.016 | 1.02 ± 0.011 | 1.06 ± 0.07 | 1.01 ± 0.01 | 1.03 ± 0.017 |
| CC(N)(C(=O)O)c1ccc(C(=O)O)cc1 (racemic) [(±)-alpha-Methyl-4-carboxyphenylglycine] | 0.983 ± 0.013 | 0.958 ± 0.014 | 0.995 ± 0.025 | 1.01 ± 0.06 | 0.9813 ± 0.0038 | 0.9883 ± 0.0096 |
| Nc1nc(Cl)nc2c1ncn2[C@@H]1O[C@H](CO)[C@@H](O)[C@@H]1F [Clofarabine] | 0.124 ± 0.015 | 0.146 ± 0.0052 | 0.341 ± 0.017 | 0.302 ± 0.017 | 0.0363 ± 0.0032 | 0.0483 ± 0.0032 |
| CN1CC[C@H](c2c(O)cc(O)c3c(=O)cc(-c4ccccc4Cl)oc23)[C@H](O)C1 [Flavopiridol (Alvocidib)] | 0.0613 ± 0.0073 | 0.0242 ± 0.0072 | 0.109 ± 0.015 | 0.0932 ± 0.025 | 0.0171 ± 0.0043 | 0.00703 ± 0.0012 |
| CN1CC[C@H](c2c(O)cc(O)c3c(=O)cc(-c4ccccc4Cl)oc23)[C@H](O)C1 [Flavopiridol hydrochloride] | 0.0447 ± 0.0058 | 0.0238 ± 0.0012 | 0.066 ± 0.0098 | 0.0883 ± 0.016 | 0.0103 ± 0.0015 | 0.00802 ± 0.0019 |
| CC(N)=O [Acetamide] | 0.974 ± 0.013 | 0.955 ± 0.046 | 0.9897 ± 0.0032 | 0.948 ± 0.02 | 0.9883 ± 0.009 | 0.9837 ± 0.0085 |
| CC(C)(C)NC[C@H](O)COc1nsnc1N1CCOCC1 [Timolol Maleate] | 1.02 ± 0.01 | 1.04 ± 0.025 | 1.02 ± 0.017 | 1.023 ± 0.0058 | 1.007 ± 0.0058 | 1.01 |
| CC(C)(C)NC[C@H](O)COc1nsnc1N1CCOCC1 [S(-)-Timolol maleate] | 1.017 ± 0.0058 | 1.03 ± 0.021 | 0.836 ± 0.32 | 1.03 ± 0.011 | 1.01 ± 0.01 | 1.013 ± 0.0058 |
| C[C@]12CCC(=O)C=C1CC[C@@H]1[C@@H]2[C@@H](O)C[C@@]2(C)[C@H]1CC[C@]2(O)C(=O)COC(=O)CCC(=O)O [Hydrocortisone 21-hemisuccinate sodium salt] | 1.007 ± 0.0058 | 1.017 ± 0.0058 | 1.01 ± 0.01 | 1.04 ± 0.021 | 0.921 ± 0.017 | 0.832 ± 0.044 |
| FC(F)(F)c1ccccc1-n1ccnc1 [1-[2-(Trifluoromethyl)phenyl]imidazole] | 1 ± 0.014 | 0.992 ± 0.025 | 1 ± 0.03 | 0.996 ± 0.013 | 1.02 | 1.02 ± 0.01 |
